One test has as its system HSkMC. Nature of the test: cytotoxicity call (relative viability < 0.9). To be noted: 10 µM.
Another test deals with HepG2. In words: cytotoxicity call (relative viability < 0.9). The note with it: 10 µM.
For the next test, the system named is S. aureus RN4220. Nature of the test: growth inhibition call (relative growth <= 0.2). To be noted: 50 µM.

The other results are listed elsewhere or left out.

For the compound `COc1ccc(S(=O)(=O)Nc2cccc3c2O[C@@H](CN(C)S(=O)(=O)c2ccc(C)cc2)[C@H](C)CN([C@@H](C)CO)C3=O)cc1`, the cytotoxicity call in the test with HSkMC and with HepG2 was “inactive” in each case. Further, the growth inhibition call in the test on S. aureus RN4220 is “inactive”.

Turning to `CC1(C)CCC(c2ccc(Cl)cc2)=C(CN2CCN(c3ccc(C(=O)NS(=O)(=O)c4ccc(N[C@@H](CCN5CCOCC5)CSc5ccccc5)c(S(=O)(=O)C(F)(F)F)c4)cc3)CC2)C1`, the cytotoxicity call in the test with HSkMC and in the test on HepG2 was “active” throughout. Also, the growth inhibition call with S. aureus RN4220 is “inactive”.

With `CCCCCC/C=C\CCCCCCCC(=O)O`, the cytotoxicity call in the test with HSkMC and in the test on HepG2 was “inactive” in each case. The growth inhibition call in the test on S. aureus RN4220 is “inactive”.

Take `COc1ccc(S(=O)(=O)N(C)C[C@H]2Oc3ccc(NS(=O)(=O)c4ccccc4)cc3CC(=O)N([C@H](C)CO)C[C@@H]2C)cc1`: the cytotoxicity call in the test with HSkMC and with HepG2 was “inactive” each time. Also, in the test on S. aureus RN4220, the growth inhibition call is “inactive”.

For `C[C@@H]1CN([C@@H](C)CO)C(=O)Cc2cc(NC(=O)CCC(F)(F)F)ccc2O[C@@H]1CN(C)S(=O)(=O)c1ccccc1`, the cytotoxicity call in the test on HSkMC is “inactive”. The cytotoxicity call with HepG2 was “active”. Further, in the test with S. aureus RN4220, the growth inhibition call is “inactive”.

For `CCCNC(=O)N(C)C[C@@H]1Oc2cc(C#Cc3ccccn3)ccc2S(=O)(=O)N([C@H](C)CO)C[C@H]1C`, the cytotoxicity call in the test with HSkMC and in the test on HepG2 was “inactive” each time. In the test with S. aureus RN4220, the growth inhibition call was “inactive”.

Consider `Cc1ccc(S(=O)(=O)Nc2ccc3c(c2)CC(=O)N([C@H](C)CO)C[C@@H](C)[C@@H](CN(C)S(=O)(=O)c2cn(C)cn2)O3)cc1`, for which the cytotoxicity call with HSkMC and with HepG2 was “inactive” each time. Moreover, in the test on S. aureus RN4220, the growth inhibition call is “inactive”.

With `CN1C(=O)[C@@H]2[C@H](N=CN2CCCO)N(C)C1=O`, the cytotoxicity call in the test on HSkMC and with HepG2 was “inactive” throughout. In addition, the growth inhibition call in the test with S. aureus RN4220 is “inactive”.

`C[C@@H]1CCCCO[C@@H](CN(C)Cc2ccc(C(F)(F)F)cc2)[C@H](C)CN([C@@H](C)CO)C(=O)c2cc(NC(=O)Nc3cccc4ccccc34)ccc2O1`: the cytotoxicity call in the test with HSkMC and in the test on HepG2 was “inactive” each time. Also, the growth inhibition call in the test with S. aureus RN4220 is “inactive”.

As for `C[C@H](CO)N1C[C@H](C)[C@H](CN(C)Cc2ccccc2)OCCCC[C@H](C)Oc2ccc(NC(=O)C3CCCCC3)cc2C1=O`, the cytotoxicity call in the test on HSkMC and in the test with HepG2 was “inactive” each time. In addition, the growth inhibition call in the test on S. aureus RN4220 is “inactive”.

For `CCCN1C[C@@H](C)[C@@H](OC)CN(C)C(=O)c2cc(NS(=O)(=O)c3cn(C)cn3)ccc2OC[C@H]1C`, the cytotoxicity call in the test on HSkMC and in the test with HepG2 was “inactive” each time. The growth inhibition call in the test on S. aureus RN4220 was “inactive”.

`C[C@@H]1CCCCO[C@H](CN(C)C(=O)Nc2ccc(F)cc2)[C@H](C)CN([C@H](C)CO)C(=O)c2cc(NC(=O)Cc3ccccc3)ccc2O1`: the cytotoxicity call in the test with HSkMC and in the test with HepG2 was “inactive” in each case. Also, the growth inhibition call in the test on S. aureus RN4220 is “inactive”.

On to `CCS(=O)(=O)N1CC[C@]2(CC1)CN([C@@H](CO)c1c2c2ccc(cc2n1C)OC)C(=O)c1ccc(cc1)F`, for which the cytotoxicity call in the test with HSkMC and in the test on HepG2 was “inactive” throughout. Also, in the test with S. aureus RN4220, the growth inhibition call is “inactive”.

Take `CC(C)NC(=O)N(C)C[C@H]1Oc2ccc(NS(=O)(=O)c3ccc(Cl)cc3)cc2CC(=O)N([C@@H](C)CO)C[C@@H]1C`: the cytotoxicity call with HSkMC and with HepG2 was “inactive” in each case. For the same compound, in the test with S. aureus RN4220, the growth inhibition call is “inactive”.

Regarding `COc1cc2c(cc1OC)CC(=O)N(CCCN(C)CC1Cc3cc(OC)c(OC)cc31)CC2.Cl` (centres undefined), the cytotoxicity call in the test on HSkMC and in the test on HepG2 was “inactive” in each case. Moreover, the growth inhibition call in the test on S. aureus RN4220 was “inactive”.

On to `CC(/C=C/C(=O)NO)=C\c1ccccc1OCc1cn(CCNC(=O)[C@@H](NS(=O)(=O)c2ccc(C)cc2)C(C)C)nn1`, for which the cytotoxicity call with HSkMC and in the test with HepG2 was “inactive” in each case. The growth inhibition call in the test with S. aureus RN4220 was “inactive”.

Regarding `C[C@H](CO)N1C[C@H](C)[C@@H](CN(C)S(=O)(=O)c2ccc(Cl)cc2)OCCCC[C@H](C)Oc2ccc(NC(=O)NC3CCCCC3)cc2C1=O`, the cytotoxicity call in the test on HSkMC (human skeletal muscle cells) was “inactive”. Moreover, the cytotoxicity call in the test with HepG2 was “active”. Also, the growth inhibition call in the test with S. aureus RN4220 is “inactive”.

As to `C[C@@H]1CN([C@H](C)CO)C(=O)c2cc(NC(=O)c3ccncc3)ccc2O[C@@H]1CN(C)S(=O)(=O)c1cn(C)cn1`, the cytotoxicity call with HSkMC and in the test with HepG2 was “inactive” each time. Moreover, in the test with S. aureus RN4220, the growth inhibition call is “inactive”.

As to `C[C@@H]1CN([C@@H](C)CO)S(=O)(=O)c2ccc(-c3cncnc3)cc2O[C@@H]1CN(C)C(=O)Cc1ccncc1`, the cytotoxicity call with HSkMC and with HepG2 was “inactive” throughout. For the same compound, the growth inhibition call in the test on S. aureus RN4220 is “inactive”.

For `COc1ccc(S(=O)(=O)Nc2cccc3c2O[C@@H](CN(C)Cc2ccc(Cl)c(Cl)c2)[C@@H](C)CN([C@H](C)CO)C3=O)cc1`, the cytotoxicity call with HSkMC and in the test with HepG2 was “inactive” each time. Also, in the test with S. aureus RN4220, the growth inhibition call was “inactive”.

Consider `CCS(=O)(=O)Nc1ccc2c(c1)C(=O)N(C)C[C@H](OC)[C@@H](C)CN(Cc1nccs1)[C@@H](C)CO2`, for which the cytotoxicity call with HSkMC and in the test on HepG2 was “inactive” in each case. The growth inhibition call in the test with S. aureus RN4220 is “inactive”.

As to `CO[C@@H](CN(C)C(=O)C1CCOCC1)[C@H](C)CN(C(=O)Nc1ccc(C(F)(F)F)cc1)[C@@H](C)CO`, the cytotoxicity call in the test with HSkMC and in the test with HepG2 was “inactive” in each case. Besides, the growth inhibition call in the test with S. aureus RN4220 is “active”.

For `C[C@@H]1CN([C@@H](C)CO)C(=O)Cc2cc(NC(=O)c3ccncc3)ccc2O[C@@H]1CN(C)S(=O)(=O)c1cccs1`, the cytotoxicity call with HSkMC was “inactive”. The cytotoxicity call in the test on HepG2 is “active”. For the same compound, the growth inhibition call in the test on S. aureus RN4220 is “inactive”.

As for `C[C@@H]1CN([C@H](C)CO)C(=O)Cc2cc(NS(=O)(=O)c3cn(C)cn3)ccc2O[C@H]1CN(C)S(=O)(=O)c1ccccc1`, the cytotoxicity call in the test with HSkMC and in the test with HepG2 was “inactive” each time. Besides, in the test on S. aureus RN4220, the growth inhibition call was “inactive”.

Regarding `COc1ccc2c3c(n(c2c1)C)[C@H](CO)N(C[C@]13CN(Cc2cccc(c2)F)C1)C(=O)C1CCOCC1`, the cytotoxicity call with HSkMC and in the test with HepG2 was “inactive” each time. The growth inhibition call in the test with S. aureus RN4220 is “inactive”.

Regarding `CC(C)C#Cc1ccc2c(c1)O[C@@H](CN(C)C(=O)c1cnccn1)[C@H](C)CN([C@H](C)CO)S2(=O)=O`, the cytotoxicity call with HSkMC and in the test with HepG2 was “inactive” each time. In the test with S. aureus RN4220, the growth inhibition call is “inactive”.

Regarding `C[C@@H]1CN([C@@H](C)CO)C(=O)Cc2cc(NC(=O)CCCN(C)C)ccc2O[C@H]1CN(C)S(=O)(=O)c1ccccc1`, the cytotoxicity call with HSkMC and in the test with HepG2 was “inactive” throughout. In addition, the growth inhibition call with S. aureus RN4220 is “inactive”.

Consider `COc1ccc(S(=O)(=O)N2[C@@H]3CC[C@@H](C3)[C@H]2c2nc3cccc(OCc4ccccc4)c3[nH]2)cc1OC`, for which the cytotoxicity call in the test with HSkMC and in the test on HepG2 was “inactive” throughout. Moreover, the growth inhibition call in the test with S. aureus RN4220 was “inactive”.

These data come from the antibiotic and cytotoxicity screens of Wong et al. (2023).
